Measured values reported in PubChem BioAssay AID651820 (National Center for Advancing Translational Sciences (NCATS), 2012).
The campaign covered roughly 340,000 compounds. About 12,000 (3.5%) were called active. This list was built around the results that the source calls inconclusive (neither active nor inactive); the mix of calls is not that of the screen. The call rests on the fitted dose curve; in most records, active means well fitted inhibition curve with a large enough effect; inconclusive means small, poorly fitted or top-dose-only effect, or another doubt; inactive means no such curve, though single readings can be large or run the other way. Potencies of inconclusive entries are left out as doubtful fits.
On the % scale 0 is the no-effect control and ±100 the full control effect; potency means the concentration at half of the fitted maximal effect; tags describe the fitted curve by direction and shape.

Assay: qHTS Assay for Inhibitors of Hepatitis C Virus (HCV)
Details: Huh7.5.1 HCVcc-Cre (HCVcc is cell-culture hepatitis C virus) infection, luciferase reporter, 44 h; activity change, negative = inhibition: at 41.8 µM (top of the series)
In short: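 Seed cells (1,000/well) for 4 h; treat with compound and infect with HCVcc-Cre, moi about 0.5. Incubate 44 h, then detect luciferase activity.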
With `C=CCN1C(=O)CS/C1=C(\C#N)S(=O)(=O)c1ccc(C)cc1` the Potency was “inactive”.
For `COc1ccccc1NC(=O)c1cccc(S(=O)(=O)N2CCN(Cc3ccccc3)CC2)c1`, the Potency was active: 10 µM.
For `CCOc1ccc(Nc2nc(Cc3nnc(SCC(=O)NC4CCCCC4)n3C)cs2)cc1`, the Potency was inconclusive [inhibitor, single point].
With `CCOC(=O)c1cc(C#N)c(N2CCN(c3ccccn3)CC2)nc1-c1ccccc1` the Potency was inconclusive [inhibitor, partial curve].
In the case of `COc1cc(OC)c(-c2nnc(-c3ccc(OC)c(OC)c3OC)o2)cc1OC`, the Potency was inconclusive [inhibitor, partial curve, poor fit].
In the case of `CCOc1cc(NC(=S)NCC2CCCO2)c(OCC)cc1NC(=O)c1ccc(F)cc1` (stereo not given), the Potency was inconclusive [inhibitor, partial curve, poor fit].
For `O=C(/C=C/c1ccc(Br)cc1)c1ccco1`, the Potency was “inactive”.
For `Cc1nc(N2CCN(c3ccccn3)CC2)c2c(C)c(C(=O)Nc3ccc(F)cc3Cl)sc2n1`, the Potency was inconclusive [inhibitor, single point].
In the case of `Cc1ccc2nc(NC(=O)C3CCCN3C(=O)OC(C)(C)C)sc2c1` (stereo not given), the Potency was “inactive”.
For `O=C(c1cc(-c2ccccc2)n[nH]1)N1CCc2c([nH]c3ccccc23)C1c1ccccn1` (stereo not given), the Potency was inconclusive [inhibitor, single point].
For `COc1cc(OC)c(C(=O)OCC(=O)Nc2cccc(S(=O)(=O)NC3=NCCCCC3)c2)cc1OC`, the Potency was inconclusive [inhibitor, single point].
With `CCOC(=O)c1oc2cc(O)c(CC)cc2c(=O)c1-c1ccc2c(c1)OCCO2` the Potency was inconclusive [inhibitor, partial curve].
For `FC(F)(F)c1nnc(-c2ccccc2)nc1N1CCCC1`, the Potency was “inactive”.
In the case of `COc1cc(/C=C2/C(=O)ON=C2C)cc(Cl)c1O`, the Potency was “inactive”.
In the case of `CCOc1ccc(-c2nc(CSCC(=O)N3CCN(c4cccc(OC)c4)CC3)c(C)o2)cc1`, the Potency was active: 12.6 µM.
In the case of `CC(Sc1ccc(Cl)cc1)C(=O)Nc1ccccc1-c1ccccc1` (stereo not given), the Potency was inconclusive [inhibitor, partial curve].
In the case of `CS(=O)(=O)Nc1ccc(C2=NN(C(=O)c3ccco3)C(c3ccccc3F)C2)cc1` (stereo not given), the Potency was inconclusive [inhibitor, full curve].
For `O=C1CC(SC(=Nc2ccccc2)Nc2ccccc2)C(=O)N1c1ccc(Cl)c(Cl)c1` (stereo not given), the Potency was inconclusive [inhibitor, single point].
For `COc1ccc(Br)cc1CN(C)CC(=O)Nc1cc(Cl)ccc1Cl`, the Potency was inconclusive [inhibitor, single point].
With `O=C(NCC(c1ccco1)N1CCCCC1)c1cccs1` (stereo not given) the Potency was “inactive”.
With `CC(=O)Nc1ccc(NC(=O)CCNS(=O)(=O)c2cccc3nsnc23)cc1` the Potency was “inactive”.
For `CCCn1c(C(C)Nc2nc(-c3ccc(C)cc3)cs2)nc2cc(Cl)c(Cl)cc21` (stereo not given), the Potency was inconclusive [inhibitor, single point].
In the case of `COc1cccc(-c2nc(CS(=O)(=O)CC(=O)NC3CCC(C)CC3)c(C)o2)c1` (stereo not given), the Potency was inconclusive [inhibitor, partial curve].
With `CCOc1ccc2c(c1)C(c1ccc(C)o1)=NNC(c1ccncc1)=N2` the Potency was inconclusive [inhibitor, single point].
With `Cc1ccccc1C(=O)Nc1ccnn1C1CCN(C2CCSCC2)CC1` the Potency was “inactive”.
With `CN(C)c1cc(O)c(C(=S)Nc2ccccc2)c(N(C)C)c1` the Potency was active: 11.2 µM.
For `S=C(NCCc1ccc(Cl)cc1)NC1CCCCC1`, the Potency was “inactive”.
With `COCCNC(=O)/C(C#N)=C/c1c(N2CCCCCC2)nc2c(C)cccn2c1=O` the Potency was inconclusive [inhibitor, single point].
In the case of `COc1ccccc1N1CCN(Cc2cc(=O)c(OCC(=O)Nc3ccccc3)co2)CC1`, the Potency was inconclusive [inhibitor, single point].
With `Cc1c(C(=O)NCCc2ccc(Cl)cc2)sc2nc3n(c(=O)c12)CCC3` the Potency was inconclusive [inhibitor, single point].
In the case of `O=C(NCCc1ccccc1Cl)c1cc(COc2ccc(F)cc2F)on1`, the Potency was active: 11.2 µM.
For `CNC(=O)OCc1nc(SSC(C)(C)C)n(C)c1COC(=O)NC`, the Potency was inconclusive [inhibitor, partial curve].
For `CCn1nnc2cc(C(=O)Nc3cccc(S(=O)(=O)N(C)C)c3)ccc21`, the Potency was inconclusive [inhibitor, partial curve].
With `COC(=O)c1ccc2c(CCO)c[nH]c2c1` the Potency was “inactive”.
In the case of `C=CCc1ccc(OCCCNC2CCCC2)c(OC)c1`, the Potency was inconclusive [inhibitor, partial curve].
In the case of `COC(=O)c1ccccc1NC(=O)C1CCCN(S(=O)(=O)c2ccc(OC)cc2)C1` (stereo not given), the Potency was inconclusive [inhibitor, single point].
For `CN(C)c1ccc(C=c2c3cc([N+](=O)[O-])ccc3n3c2cc(-c2ccccc2)[n+]3C)cc1`, the Potency was inconclusive [inhibitor, partial curve].
With `CCOC(=O)c1c(NC(=O)c2nn(CC)cc2Br)c(C#N)nn1-c1ccccc1` the Potency was active: 11.2 µM.
In the case of `CCOC(=O)c1cnc2c(N=Nc3ccccc3)c(N)nn2c1N`, the Potency was “inactive”.
In the case of `CC(=O)N1CCN(CC(=O)NC(=O)Nc2ccc3c(c2)OCCO3)CC1`, the Potency was “inactive”.
For `Cn1sccc1=O`, the Potency was “inactive”.
In the case of `COC(=O)c1nnn(-c2ccccc2)c1N`, the Potency was inconclusive [inhibitor, full curve].
In the case of `Cc1cc(C)c(OCC(=O)Nc2cccc(NC(=O)c3ccco3)c2)c(Br)c1`, the Potency was inconclusive [inhibitor, full curve].
With `COc1ccc(C(C)=O)cc1Cn1nc(C)c([N+](=O)[O-])c1C` the Potency was inconclusive [inhibitor, partial curve].
With `CCN(CC)CCNC(=O)c1ccc(NC(=O)Nc2cccc3ccccc23)cc1` the Potency was “inactive”.
For `CCOC(=O)c1c(N)sc2c1CCS(=O)(=O)C2`, the Potency was inconclusive [inhibitor, single point].
In the case of `C=COCCn1c(C)c(C(C)=O)c2cc(O)ccc21`, the Potency was inconclusive [inhibitor, full curve].
In the case of `CC(=O)c1cccc(NC(=O)NC2CCCc3ccccc32)c1` (stereo not given), the Potency was inconclusive [inhibitor, single point].
In the case of `CCOc1ccc(C2C(C#N)=C(N)N(c3sc4c(c3C#N)CCCC4)C3=C2C(=O)CCC3)cc1` (stereo not given), the Potency was inconclusive [inhibitor, partial curve].
In the case of `Cc1cc(N2CCC(C)CC2)n2nc(C)c(-c3ccccc3)c2n1`, the Potency was “inactive”.
For `c1ccc2[nH]c(CSc3ncnc4c3oc3ccccc34)nc2c1`, the Potency was inconclusive [inhibitor, single point].
In the case of `CCOC(=O)c1cc(-c2ccc(C)cc2)n(CCC(=O)N2CCN(c3ccccn3)CC2)c1C`, the Potency was inconclusive [inhibitor, partial curve].
For `Cc1ccc(-c2csc(NC(=O)c3ccc(C)o3)n2)cc1`, the Potency was inconclusive [inhibitor, single point].
In the case of `Cc1c(-c2nc(N)nc(Nc3ccccc3)n2)oc2ccccc12`, the Potency was inconclusive [inhibitor, single point].
For `CCOC(=O)[C@H]1[C@H]2COc3ccc(Cl)cc3[C@@H]2N2C(=O)c3cc(Cl)ccc3NC(=O)[C@@]12C`, the Potency was inconclusive [inhibitor, single point].
In the case of `CC(Oc1ccccc1)C(=O)Nc1oc(-c2ccco2)c(-c2ccco2)c1C#N` (stereo not given), the activity change, negative = inhibition was inconclusive: -68.7% [inhibitor].
In the case of `Cc1cccc(-n2cnc(C(=O)NNC(=S)Nc3ccc(Cl)cc3)c2)n1`, the Potency was “inactive”.
For `O=C(/C=C/c1ccccc1)NC(NC(=S)Nc1ccc(Cl)cc1)C(Cl)(Cl)Cl` (stereo not given), the Potency was inconclusive [inhibitor, single point].
For `Cc1cccc(OCCCCCn2ccnc2)c1C`, the Potency was inconclusive [inhibitor, single point].
With `O=C(Nc1ccc(CN2CCOCC2)cc1)c1cc2ccccc2o1` the Potency was active: 35.5 µM.
For `CCN(CC(=O)Nc1ccccc1OC)C(=O)CN1C(=O)NC(C)(c2ccc(C)cc2)C1=O` (stereo not given), the Potency was inconclusive [inhibitor, single point].
For `CN(Cc1ccccc1)C(=O)c1ccc(NC(=O)C2CCCN(C(=O)OC(C)(C)C)C2)cc1` (stereo not given), the Potency was active: 6.31 µM.
In the case of `Cn1nc(-c2ccc(Cl)cc2)c2cc(C(=O)NC3CC3)sc21`, the Potency was inconclusive [inhibitor, single point].
For `CCC1(C)Cc2c(C#N)c(SC)nc(N3CCOCC3)c2CO1` (stereo not given), the Potency was inconclusive [inhibitor, single point].
For `Cn1c(/C=C/c2ccccc2)nc2ccccc21`, the Potency was inconclusive [inhibitor, single point].
With `Cc1ccc(C2=C(c3ccc([N+](=O)[O-])cc3)C(=O)OC2)cc1C` the Potency was inconclusive [inhibitor, partial curve].
In the case of `CCOC(=O)/C(=N\Nc1ccc(OC)cc1)c1csc(Nc2ccccc2)n1`, the Potency was active: 1 µM.
With `O=[N+]([O-])c1ccc(F)cc1OCc1nc(-c2cccs2)no1` the Potency was “inactive”.
In the case of `COc1ccc(/C(C)=N/NC(=O)c2ccc(CSc3cccc4cccnc34)cc2)cc1OC`, the Potency was inconclusive [inhibitor, full curve].
In the case of `O=C(CC1CCCC1)Nc1ccc(Br)cc1`, the Potency was inconclusive [inhibitor, single point].
